The full ranking holds about 33,000 sequences; the median of “E-score (-0.5 to 0.5)” is about -0.054, and the highest 2% start at about 0.39. This is one part of the list.
Target: Ylr278c (UniProt Q05854)
Assay: PBM E-score (8-mer binding enrichment) (E-score (-0.5 to 0.5)); higher = stronger / more preferred TF binding; most listed sequences are background and not binding sites
Conditions: protein concentration: 200 nM; construct: GST-DNA-binding domain
Outline: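 The E-score, a modified Wilcoxon-Mann-Whitney statistic, was computed by the Universal PBM Analysis Suite for every ungapped eight-base word pooled with its reverse complement. Scans behind it were normalised with masliner after bound GST-tagged yeast transcription factors were detected with fluorescent anti-GST. The proteins, at about 100-200 nM, had been applied to universal all-10-mer Agilent arrays made double-stranded by primer extension.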

| Sequence | PBM E-score |
| --- | --- |
| AAGAGGGC | -0.282 |
| TAGTCGCA | -0.0137 |
| CGAATGCG | 0.223 |
| CTCAGCCA | -0.0917 |
| TAATAAAA | -0.0513 |
| GCCAAAAC | -0.0997 |
| CACACCCG | 0.0332 |
| CAGGGCCA | -0.226 |
| CTGATTTC | -0.0243 |
| AACGCTAT | -0.0678 |
| ACGATCCT | -0.239 |
| CAATATTC | 0.0142 |
| CCAGGAAC | -0.118 |
| ATGCGGGG | 0.161 |
| CTCATTTA | 0.0721 |
| AGGTCCAA | -0.179 |
| CAGGATAA | -0.155 |
| AACGGATT | 0.276 |
| TCAAGGCA | -0.265 |
| GCAATGGC | 0.049 |
| CCTCGGAG | 0.456 |
| AGCCAGAA | -0.217 |
| AGACAGTC | -0.129 |
| AACTGAAG | -0.106 |
| CTCGGGAC | 0.272 |

| Sequence | PBM E-score |
| --- | --- |
| ACTGGGCG | 0.0351 |
| ACGGTGCA | -0.198 |
| TACTGTGA | -0.0654 |
| ACGTTGTA | -0.0605 |
| GGGACACC | -0.0306 |
| CAAGTGCC | -0.188 |
| ACCGATAG | 0.124 |
| CCGGACCG | 0.426 |
| TACAAAGA | -0.0951 |
| AGCAATCC | 0.0971 |
| GCTTGAAC | 0.0541 |
| CATCAGAG | -0.181 |
| CCGGCGGA | 0.456 |
| ATATCAGA | 0.0583 |
| TCCTCCGA | 0.43 |
| GTAGATAA | 0.0815 |
| CGTGTTTC | 0.0625 |
| TCGCCGAA | 0.327 |
| ACACAAGT | -0.254 |
| TAAGTCCA | 0.00247 |
| ATTCTCTA | -0.0579 |
| CCAGATGC | -0.112 |
| GACGCCCC | 0.179 |
| CCAAAGAC | -0.0458 |
| ATAACCAG | -0.116 |

| Sequence | PBM E-score |
| --- | --- |
| ATCGCCAG | 0.00501 |
| AAGCGTAG | -0.123 |
| AATGAGAT | -0.0336 |
| GCTAGACC | -0.095 |
| GTTACGTA | -0.296 |
| CATAGAAA | 0.00301 |
| ATGCAGGA | -0.153 |
| AGCGATCC | 0.119 |
| AGCTCCCT | -0.204 |
| GCTCTGGA | -0.1 |
| AACGATGT | -0.16 |
| CAGGCATG | -0.0835 |
| CAGCGACG | -0.0577 |
| CGCAAGAC | -0.0829 |
| GCGGGATA | 0.266 |
| AGGAGACG | -0.12 |
| CCACACAG | -0.144 |
| ATACATAA | -0.167 |
| GCCATATA | -0.0508 |
| CCAATTCA | -0.278 |
| CTTAAGTA | -0.106 |
| GGTAAATA | 0.107 |
| ACGGAGGG | 0.318 |
| CCTGTACA | 0.0467 |
| AGTTACCA | -0.0694 |

| Sequence | PBM E-score |
| --- | --- |
| AGCATGGC | -0.169 |
| CATGTGCA | -0.146 |
| AAGTTATG | -0.0742 |
| ATCTACGA | -0.25 |
| ACTGGGAA | 0.0902 |
| GAAGTATC | -0.0367 |
| ACGTGAGT | -0.183 |
| CAACCAGG | -0.275 |
| ACCTATAT | 0.0976 |
| TACGACCA | -0.288 |
| AGAGCACA | -0.212 |
| AATCGCTC | -0.179 |
| CCGGTAGA | 0.272 |
| AGCTCCAG | -0.108 |
| CCGCGATA | 0.232 |
| CATTTTAA | -0.00071 |
| GCACGAGA | -0.0575 |
| GCCGGTTA | 0.19 |
| CAATTAGA | -0.237 |
| CACGTGAC | -0.195 |
| CCATCGGC | 0.282 |
| CTCTTCAC | -0.154 |
| AATAATCA | -0.0452 |
| GCTTTTGA | -0.0305 |
| CATCATGG | -0.141 |

| Sequence | PBM E-score |
| --- | --- |
| CCGGTGTC | 0.352 |
| ACTTGGTG | -0.247 |
| ACAGCGTG | -0.17 |
| AGAGAACT | -0.124 |
| AGCCCGAA | 0.297 |
| CAAGTCGA | -0.278 |
| CGCACGAA | -0.0815 |
| GACTTCAA | -0.0884 |
| GGTTTATA | 0.00308 |
| GATCGTCA | -0.0693 |
| AAGAGCAG | -0.228 |
| ACTCGGAT | 0.251 |
| AAGCTATG | -0.249 |
| TCGCTCCA | -0.139 |
| GCACAACA | -0.0315 |
| ACCACTGC | -0.184 |
| AGGACGCA | -0.0283 |
| CCCCGCGG | 0.328 |
| GGTCGCTA | -0.0221 |
| CATCAGCC | -0.176 |
| GATCAAGA | 0.127 |
| AACGCGGG | 0.301 |
| AATGAAAC | -0.047 |
| CACCGAGG | 0.142 |
| AAACTCGG | 0.343 |

| Sequence | PBM E-score |
| --- | --- |
| ACCTCCTG | -0.253 |
| ACCCTGGG | -0.153 |
| GCGATCCA | -0.0934 |
| AGACGCCA | -0.25 |
| TACCTTCA | -0.22 |
| CCAGCCAG | -0.234 |
| AGATATTA | -0.0403 |
| CATGATCA | -0.112 |
| TAAGAGTA | -0.0846 |
| CCAGAGGC | -0.238 |
| CTGCATTA | -0.0765 |
| GGACTGGA | -0.0465 |
| AGGCTATA | -0.233 |
| CCGCTTAA | 0.183 |
| ACCTGGGG | -0.205 |
| CGACGCCC | 0.226 |
| AAAGAGTC | -0.0444 |
| AAGTGTCT | -0.164 |
| ATTTACAG | -0.123 |
| ACAGATTC | -0.0942 |
| GCACCGCA | -0.0796 |
| TGTCGACA | -0.252 |
| AGGTGAAG | -0.202 |
| GTACATAA | -0.0326 |
| GCCGCCCC | 0.282 |

| Sequence | PBM E-score |
| --- | --- |
| ACTGCAGC | -0.0727 |
| ATCGGCAA | 0.248 |
| ACCGCCAC | 0.0241 |
| AAGGAATT | 0.00527 |
| CTGCTGCC | -0.133 |
| GGTAGACA | -0.018 |
| ATCTCTTA | 0.019 |
| AGAGTCCC | -0.00816 |
| ATGTGCAC | -0.0408 |
| AAGCAGCT | -0.121 |
| AATAGAGA | -0.139 |
| GCATAGAA | -0.0675 |
| CAAGCGAG | -0.0181 |
| CATCCCCA | -0.109 |
| ACGAACGG | 0.197 |
| GTGGAGTA | -0.135 |
| ACGTCTCG | -0.161 |
| CATTAATA | 0.0436 |
| AACCGTGG | -0.0901 |
| ACCCAGTA | -0.208 |
| CCGCGCGC | 0.28 |
| CAACTGGA | -0.0975 |

Reference: the supplement of paper PMC3334620
